# Reference: publication PMC7819943, “Rice protein-binding microarrays: a tool to detect cis-acting elements near promoter regions in rice”
# Some of the results follow.
# Target: T1, OsWOX13 (Oryza sativa, UniProt Q5QMM3 1-267)
# T1 sequence: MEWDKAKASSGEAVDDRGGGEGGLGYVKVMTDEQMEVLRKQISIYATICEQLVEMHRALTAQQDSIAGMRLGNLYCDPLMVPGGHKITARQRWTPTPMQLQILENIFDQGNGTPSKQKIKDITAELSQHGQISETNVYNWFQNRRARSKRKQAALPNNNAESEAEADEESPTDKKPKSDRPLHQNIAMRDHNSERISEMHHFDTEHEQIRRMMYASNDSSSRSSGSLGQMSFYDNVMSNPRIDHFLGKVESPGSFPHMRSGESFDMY
# Experiment: protein-binding microarray (RPBM); PBS, 2% BSA, 51.3 ng/ul salmon testes DNA, 50 uM zinc acetate, 200 nM TF, 25 C, 1 h; high values mean tight binding
# Conditions: protein: recombinant; tags: N-terminal polyhistidine and DsRed monomer fusion (pET32a); label: CyDye5-dUTP incorporated in the synthesized complementary strand; 3' TTTTT single-stranded linker to array surface; dsDNA, one strand shown
# In short: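 A custom Agilent array was converted to double-stranded form by primer extension with Cy5-dUTP and blocked with 2% BSA. Protein at 200 nM in PBS with 2% BSA, salmon testes DNA and 50 µM zinc acetate was applied for 1 h at 25 °C, followed by washing. The proteins were polyhistidine–DsRed N-terminal fusions of transcription factors, expressed in E. coli BL21-CodonPlus and Ni–NTA-purified. The binding signal is per-feature fluorescence intensity (arbitrary units) from an Axon 4000B scanner.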
row,Sequence,binding signal
1,TGGCTGATTGTAGATTAAATTGGGTTGACACCTTTGCTATCGGAGTCACCTAGTGCAG,33800 fluorescence intensity (a.u.)
2,ACAACGGTATCAGGAGTCGGAACAGCAACTTTCTATCGTCCGGAGTCACCTAGTGCAG,21100 fluorescence intensity (a.u.)
3,TGGCGGATTTTGTAATTTGTTGTTATTAGACTACGTTTAACGGAGTCACCTAGTGCAG,6260 fluorescence intensity (a.u.)
4,GCCTTGATTATCACCTCCTGTACAAGTGTTAGATACTTCTCGGAGTCACCTAGTGCAG,36100 fluorescence intensity (a.u.)
5,CCTGATAATGATGATGAGTTCAGCATCGAGTTAGCTCTCACGGAGTCACCTAGTGCAG,19700 fluorescence intensity (a.u.)
6,ATTAATTATGTAATATATGTTTATAGATAATTATTGTATGCGGAGTCACCTAGTGCAG,46800 fluorescence intensity (a.u.)
7,GTCAAACTTTAACTGAAATCATAGAAAGGAAATCGTCATGCGGAGTCACCTAGTGCAG,4890 fluorescence intensity (a.u.)
8,TCATGAATGATTGTGGTGGATACATTGAAGCATGATCTAACGGAGTCACCTAGTGCAG,19100 fluorescence intensity (a.u.)
9,TGAACTGGGTTCATCTGATGATTGGTGTGACTTGGGAAGACGGAGTCACCTAGTGCAG,4820 fluorescence intensity (a.u.)
10,TAATGTGAGTGTTTAAATTTATATTAAAGATACATACACGCGGAGTCACCTAGTGCAG,3320 fluorescence intensity (a.u.)
11,ATTTGTGTAATTTATTGGTAGATATCGTAAAAGCGTGTAACGGAGTCACCTAGTGCAG,11600 fluorescence intensity (a.u.)
12,GTACTAGTATTATTGATTGATACACTTGTGATGTCATGCCCGGAGTCACCTAGTGCAG,30900 fluorescence intensity (a.u.)
13,TTGCATAAACTTTCTAAATTAGACAAATAGTTAAACATGTCGGAGTCACCTAGTGCAG,8620 fluorescence intensity (a.u.)
14,GGCAGGGGTAATAATTAGTTTCATATCAAAATTCATCGATCGGAGTCACCTAGTGCAG,5740 fluorescence intensity (a.u.)
15,TACGCAATAATTTATATATAAATTATATGTATATACTAATCGGAGTCACCTAGTGCAG,23400 fluorescence intensity (a.u.)
16,TTTAAACTACTACTTAATTAACTATATGCTAATGAGTCGCCGGAGTCACCTAGTGCAG,18300 fluorescence intensity (a.u.)
17,ACAAAATTAGCTTGTAACGTATATACTTGTGTTGTTTGTTCGGAGTCACCTAGTGCAG,6670 fluorescence intensity (a.u.)
18,ACTAAATGAGATCACTGATGACACAACACATATGACTCTTCGGAGTCACCTAGTGCAG,15500 fluorescence intensity (a.u.)
19,CCCGATTAACAAATCAACCCATATGCTTCCCACTCTCCATCGGAGTCACCTAGTGCAG,21700 fluorescence intensity (a.u.)
20,TCCATCCGGATTGATTGTACTTATATGATTAGTATTTTAGCGGAGTCACCTAGTGCAG,46700 fluorescence intensity (a.u.)
21,TTTGGAAATTATATTCAAATATAATTTCCTTCTAAACTCTCGGAGTCACCTAGTGCAG,5350 fluorescence intensity (a.u.)

row,Sequence,binding signal
1,CAATACATGAATGATTGCTAATTTGAAGCATATGATTAGACGGAGTCACCTAGTGCAG,27500 fluorescence intensity (a.u.)
2,TTGATTGGTAGCTAGCTAGGCTTCCGCGCGCGGCGACCCACGGAGTCACCTAGTGCAG,30100 fluorescence intensity (a.u.)
3,GGCATATCATTGACAGGAATAAGTGTCTTCCGTTGCTTGACGGAGTCACCTAGTGCAG,9980 fluorescence intensity (a.u.)
4,GACTAAATTTTAATCCCTATCACATCGGATATTTGACACTCGGAGTCACCTAGTGCAG,7230 fluorescence intensity (a.u.)
5,TCCGATTATTATTAATAATTAATAATAATATCATTTTCATCGGAGTCACCTAGTGCAG,25400 fluorescence intensity (a.u.)
6,TCTACGTTTAATATTTATAATTAGTGTCCAAACATCCGATCGGAGTCACCTAGTGCAG,5510 fluorescence intensity (a.u.)
7,AGTATAATTGCAATATAATTTTACTATAACTATAATGTAACGGAGTCACCTAGTGCAG,9150 fluorescence intensity (a.u.)
8,GTCCATGCTGATTAGAATGGGTGCTCTTCCGCTACTTGTTCGGAGTCACCTAGTGCAG,17200 fluorescence intensity (a.u.)
9,GTTAATTATTTAGAATAAAGATATCCATAGATACAATATTCGGAGTCACCTAGTGCAG,9980 fluorescence intensity (a.u.)
10,GTTGATTTGCATCGGCAAGATCAACAACCCACGGAGAGGTCGGAGTCACCTAGTGCAG,18700 fluorescence intensity (a.u.)
11,AATCAATCAAGAGTCTTCATCAAAGCTCGGATTACTTTGGCGGAGTCACCTAGTGCAG,38100 fluorescence intensity (a.u.)
12,GTGTTAATTTAATCATAAAACTTAGATGTTTATAACTCAACGGAGTCACCTAGTGCAG,18700 fluorescence intensity (a.u.)
13,AATGACGATTAATTGTATATGTGCAACCGTGCAAGCTTTGCGGAGTCACCTAGTGCAG,22800 fluorescence intensity (a.u.)
14,CTTTATTTCACAATCCATGATTACATACCTAACTAATTATCGGAGTCACCTAGTGCAG,4630 fluorescence intensity (a.u.)
15,GAGGAGGAGGAGGAGGAGGAGGAGGATGCGGGTGGTGGTGCGGAGTCACCTAGTGCAG,3500 fluorescence intensity (a.u.)
16,TTACGCCATGATTTGATAATATGGTGATACAATAAACATTCGGAGTCACCTAGTGCAG,4610 fluorescence intensity (a.u.)
17,CCCAAATCAAATCAGAGACAATTTATTATGGAGAAAATTACGGAGTCACCTAGTGCAG,7660 fluorescence intensity (a.u.)
18,CATAAATTGGAAATAGTAGTTCCATAAATGTAACAGTTATCGGAGTCACCTAGTGCAG,20300 fluorescence intensity (a.u.)
19,TGAATGATTGCTCTTGTGCTAAGATACTTATTTGCAATCCCGGAGTCACCTAGTGCAG,13300 fluorescence intensity (a.u.)
20,AATCAAACTCTGATTAGTATACATATATTCATAGTTAAATCGGAGTCACCTAGTGCAG,5890 fluorescence intensity (a.u.)
21,TATCATTGGCGTTTAATTATCTCGGCTGAATTATTTGATACGGAGTCACCTAGTGCAG,7180 fluorescence intensity (a.u.)
